In all, about 310,000 compounds went through this assay and about 2,200 (0.71%) showed an effect of 50% or more. Effects have a minus sign here. Some of the results follow.
What follows are compounds tested against human ether-à-go-go-related gene (hERG) potassium channel (human, UniProt Q12809) (assay: primary screen, population patch clamp on CHO cells stably expressing hERG).
Chain of human ether-à-go-go-related gene (hERG) potassium channel (Q12809 whole entry, looked up): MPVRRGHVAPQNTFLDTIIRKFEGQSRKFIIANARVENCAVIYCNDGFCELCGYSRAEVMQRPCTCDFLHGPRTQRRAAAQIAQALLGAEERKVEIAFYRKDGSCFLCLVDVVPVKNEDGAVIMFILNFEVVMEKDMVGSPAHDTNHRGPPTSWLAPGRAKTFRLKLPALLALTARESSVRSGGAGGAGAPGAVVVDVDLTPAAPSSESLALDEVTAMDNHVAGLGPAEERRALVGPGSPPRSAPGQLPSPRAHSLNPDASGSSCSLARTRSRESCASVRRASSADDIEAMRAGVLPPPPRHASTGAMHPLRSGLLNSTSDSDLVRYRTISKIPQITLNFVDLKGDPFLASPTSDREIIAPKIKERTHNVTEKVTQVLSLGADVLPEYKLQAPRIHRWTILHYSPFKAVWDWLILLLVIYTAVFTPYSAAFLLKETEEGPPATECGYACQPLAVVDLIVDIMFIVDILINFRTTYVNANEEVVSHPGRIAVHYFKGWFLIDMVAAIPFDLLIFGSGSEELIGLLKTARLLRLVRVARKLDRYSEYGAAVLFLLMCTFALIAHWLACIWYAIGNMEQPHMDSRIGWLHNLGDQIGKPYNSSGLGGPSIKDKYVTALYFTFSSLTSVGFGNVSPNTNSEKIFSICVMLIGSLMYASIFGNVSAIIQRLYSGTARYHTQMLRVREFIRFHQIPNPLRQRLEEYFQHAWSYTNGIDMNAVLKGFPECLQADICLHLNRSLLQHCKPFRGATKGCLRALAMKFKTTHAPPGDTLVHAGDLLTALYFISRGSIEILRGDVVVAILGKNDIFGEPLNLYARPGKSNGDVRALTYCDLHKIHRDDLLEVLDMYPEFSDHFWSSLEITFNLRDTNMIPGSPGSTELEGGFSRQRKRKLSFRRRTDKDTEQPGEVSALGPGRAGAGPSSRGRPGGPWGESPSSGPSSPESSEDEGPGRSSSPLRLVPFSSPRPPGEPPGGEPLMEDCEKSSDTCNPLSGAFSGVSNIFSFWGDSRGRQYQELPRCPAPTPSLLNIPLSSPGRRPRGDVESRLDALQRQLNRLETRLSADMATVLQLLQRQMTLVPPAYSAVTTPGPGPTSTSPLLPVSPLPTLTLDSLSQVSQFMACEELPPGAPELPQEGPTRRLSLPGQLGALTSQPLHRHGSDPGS

Compound	hERG current change (%, negative = inhibition) at 1uM
COc1ccccc1C(CNc1ncccc1[N+](=O)[O-])N(C)C (centres unmarked)	7.34%
CCN1CCN(CC(=O)c2cc(OC)c(OC)c(OC)c2)CC1	10.8%
Cc1cccc(-c2nc3c(c(SCC(=O)N(C)C)n2)CCCC3)c1	5.58%
CC(C)c1ccc(NC(=O)c2ccc(NC3=NC4CS(=O)(=O)CC4S3)cc2)cc1 (centres unmarked)	-0.0656%
Cc1ccc(NC(=S)NNc2ccc(C(=O)O)cc2[N+](=O)[O-])cc1C	13.5%
CCOC(=O)N1CCN(C(=O)c2ccc(CNS(=O)(=O)c3ccc(NC(C)=O)cc3)cc2)CC1	12%
COc1ccccc1CNC(=O)CS(=O)Cc1nc(-c2ccccc2C)oc1C (centres unmarked)	11.4%
O=C(C1CCCN(S(=O)(=O)c2cccs2)C1)N1CCC(N2CCCCC2)CC1 (centres unmarked)	-34.9%
COc1ccccc1C(=O)N/C(=C\c1cn(S(=O)(=O)N(C)C)c2ccccc12)C(=O)N1CCCCC1	13%
CCN(CC)S(=O)(=O)c1ccc(C(=O)Nc2ccc(OCC(=O)N3CCOCC3)cc2)cc1	11.1%
CC(=O)c1ccc(NC(=S)N(CCCN(C)C)Cc2ccccc2)cc1	-23%
COc1cc(NC(=O)c2ccc(-c3cccc([N+](=O)[O-])c3)o2)ccc1NC(=O)C(C)C	14%
COC(=O)c1c(NC(=O)Cn2cc([N+](=O)[O-])cn2)sc2c1CCC2	12.3%
NC(=O)CSc1nnc(-c2ccccc2F)n1C1CC1	13%
CCCSC1=C(C#N)C(c2ccc(O)c(OC)c2)CC(=O)N1 (centres unmarked)	3.36%
CC(=O)N[C@H]1C[C@@H]1c1ccccc1	-4.54%
C[C@H](NC(=O)C1CCC(CNC(=O)[C@@H]2CCCN2C(=O)OC(C)(C)C)CC1)C(=O)O (some centres unmarked)	4.05%
CNCCCc1[nH]nc(N)c1C#N	13.2%
COc1cc(OC)c(C2C(C(=O)Nc3ccccc3)=C(C)Nc3ncnn32)cc1OC (centres unmarked)	1.27%
Cc1ccc2c(c1)N(CC(=O)NC1CCCC1)C(=O)CO2	14.6%
Cc1nn(CC(=O)NCCCN2CCN(Cc3ccccc3)CC2)c(=O)c2cc(-c3ccccc3)nn12	-10%
CCC(Oc1ccccc1)C(=O)Nc1ccccc1OC (centres unmarked)	14.1%
Cc1ccc(C(=O)N2CCN(S(=O)(=O)c3ccccc3)CC2)s1	6.3%

Compound	hERG current change (%, negative = inhibition) at 1uM
CC(O)CNc1cc(N)c([N+](=O)[O-])cc1[N+](=O)[O-] (centres unmarked)	4.77%
O=C(CCC(=O)c1cccs1)NCC(c1ccc(F)cc1)N1CCOCC1 (centres unmarked)	8.37%
C=CCOc1ccc(/C=C2\SC(=S)N(N3CCOCC3)C2=O)cc1	17%
COc1ccc(OCC(=O)NNC(=O)CCc2ccccc2)cc1	5.69%
O=C(CC1C(=O)NCCN1Cc1cccc(Oc2ccccc2)c1)NCC1CCOCC1 (centres unmarked)	12%
CCC(C)(C)NC(=O)Cc1ccc(C)cc1	0.522%
COc1ccc2[nH]c(=O)c(CN(Cc3cccnc3)C(=O)Nc3ccccc3)cc2c1	-6.04%
CCOC(=O)c1[nH]c2ccc(C(=O)OC)cc2c1C(=O)OCC	15%
CCS(=O)(=O)NCCCc1ccccc1	-5.33%
COc1ccc(N(CC(=O)Nc2cccc(C)c2)S(=O)(=O)c2ccc(C)cc2)cc1OC	14.7%
C=CCOc1cccc(C(=O)N2CCCC(CNS(=O)(=O)c3cccs3)C2)c1 (centres unmarked)	7.55%
CCOC(=O)c1ccc(-n2c(-c3ccco3)nc3ccccc3c2=O)cc1	12%
O=C1c2ccccc2C(=O)N1CCC1=CCCCC1	10.7%
O=C(CNC(=O)[C@@H]1Cc2ccccc2CN1)Nc1ccc2c(c1)OCO2	22%
CN(CCC#N)C(=S)Nc1ccc(Oc2ccccc2)cc1	-7.19%
CCOc1ccc(CN2CCN(Cc3ccsc3)C(CCO)C2)cc1CO (centres unmarked)	-17.3%
CCc1nnc(NC(=O)CCC(=O)O)s1	9.24%
C/C(=N\N1C(=O)c2ccccc2C1=O)c1cccc([N+](=O)[O-])c1	15.6%
CSc1nc(C)cc(OCC(=O)N/N=C/c2ccccc2O)n1	13.5%
CCOc1cc(NC(=S)NCCCN2CCOCC2)c(OCC)cc1NC(=O)C1CCCCC1	2.06%
COC/C=C/C1=CC2=CC(=O)C(C)(OC(=O)c3cnc4ccccc4n3)C(=O)C2=CN1CCc1c[nH]c2ccccc12 (centres unmarked)	17.1%
Cc1cc(NC(=O)C2CCCC2)nc2c1c(=O)oc1ccccc12	13.6%
CC(=O)c1sc(NC(=O)c2c(F)cccc2F)nc1C	10.3%

Compound	hERG current change (%, negative = inhibition) at 1uM
CN1CCN(S(=O)(=O)c2cccc(C(=O)Nc3sccc3C#N)c2)CC1	10.5%
Cc1noc(C(=O)Nc2ccccc2C(F)(F)F)c1Cl	8.55%
Fc1ccc(CNn2cnnc2SCc2ccc(F)cc2)cc1	-6.12%
O=C(Nc1ccc2c(c1)OCO2)C1CCN(Cc2cc3c(cc2O)OCO3)CC1	2.07%
CCCCn1c(N)c(N(CCOC)C(=O)CN2C(=O)c3ccccc3C2=O)c(=O)[nH]c1=O	4.67%
O=C(NC(=S)Nc1ccc(S(=O)(=O)Nc2nccs2)cc1)C1CC1	21.5%
O=C1NC(=O)N(c2ccc3c(c2)OCO3)C(=O)/C1=C/c1ccc(N2CCCCC2)o1	19.1%
Cc1ccc(C)c(Cn2c(CN(C)Cc3ccccc3)nc3c2c(=O)n(C)c(=O)n3C)c1	-3.01%
O=C(CSc1nnc(COc2ccc3c(c2)CCCC3)o1)Nc1ccc(F)cc1	16.1%
Nc1nonc1C(=O)NCCNC(=O)c1ccc(Cl)c(Cl)c1	8.82%
CC(=O)N1CCN(C(=O)c2cc(S(=O)(=O)N3CCCCC3)ccc2Cl)CC1	9.05%
C=CCSc1ncc(CO)n1Cc1ccccc1	2.1%
COCCCC1CCN(C(=O)C2CCC(=O)N(Cc3cccc(F)c3)C2)CC1 (centres unmarked)	10.3%
N=c1c(C(=O)NC2CCCC2)cc2c(=O)n3ccccc3nc2n1CCN1CCOCC1	-94.2%
COc1ccc(/C=N/NC(=O)C(C)n2cnc3ccccc3c2=O)cc1 (centres unmarked)	-35.5%
CCCc1nnc(NC(=O)c2cc(OC)cc(OC)c2)s1	3.36%
O=C(Nc1ccc(F)cc1)c1ccc(-n2ccnc2)nc1	-3.28%
CC(=O)N1CCN(Cc2ccc(Br)s2)CC1	8.94%
Cc1ccc(NC(=O)CSCC(=O)NCCc2ccccc2)cc1	4.35%
Cc1[nH]c(=O)[nH]c(=O)c1/C=N\NC(=O)CCc1ccc(OC(C)C)cc1	20.3%
C=CC[N+](C)(C)CCN1C(=O)C2C(c3ccccc3)C=CC(c3ccccc3)C2C1=O.[Br-] (centres unmarked)	10.9%
CN(Cc1ccon1)Cc1cn(C)nc1-c1ccc2c(c1)OCCO2	17.3%
Cc1nc2ccccn2c1C(=O)N/N=C/c1ccc([N+](=O)[O-])o1	-21%

Compound	hERG current change (%, negative = inhibition) at 1uM
CCOC(=O)c1c(NC(=O)c2cc(CC(C)C)on2)sc(C(C)=O)c1C	12.5%
CCN(CC)c1ccc(NC(=O)CN(C)Cc2cccs2)cc1	16.9%
CCc1c(C)sc2nc(C(C)C)nc(SCC(=O)N3CCc4ccccc4C3)c12	4.59%
COCC(=O)N(C)c1nnc(-c2ccccn2)s1	8.82%
C(=N\c1nccs1)/Nc1nccs1	13.8%
COc1ccc(Nc2ncnc3c2cnn3Cc2ccc(C)cc2)cc1	7.63%
Cc1ccnc(NC(=O)C2COc3ccccc3O2)c1 (centres unmarked)	7.09%
Cc1cccc(NC(=O)Cn2nc(C(F)(F)F)cc2C2CC2)c1	-10.1%
COc1ccc(N2C(=O)CC(Nc3cccc([N+](=O)[O-])c3)C2=O)cc1 (centres unmarked)	4.74%
CCN1C(=O)CC(NC2CCN(C(=O)c3ccc(F)cc3)CC2)C1=O (centres unmarked)	14.8%
CCC(=O)Nc1nnc(SCC(=O)N2c3ccccc3CC2C)s1 (centres unmarked)	9.01%
Cc1ccc(OCC(=O)c2ccc(Cl)s2)c([N+](=O)[O-])n1	5.82%
Cc1ccc2c(c1)N(C)/C(=C/c1cccc[n+]1CCO)S2.[I-]	15.9%
CC(=O)N1CCN(CCN=CC2=C(O)CC(c3ccco3)CC2=O)CC1 (centres unmarked)	2.39%
CN(C(=O)c1ccc(=O)[nH]c1)C1(C(=O)NC2CCCCC2)CCCCC1	15.2%
COc1cc(C)c(C)cc1S(=O)(=O)N1CCN(Cc2ccc3c(c2)OCO3)CC1	10.9%
CCOc1ccc(C(C)NC(=O)c2ccccc2F)cc1 (centres unmarked)	11.5%
CCC(C(=O)OCC(=O)Nc1c(C)n(C)n(-c2ccccc2)c1=O)c1ccccc1 (centres unmarked)	5.41%
COCC(=O)N(C)C1(c2nnnn2CCOC(=O)Nc2ccc(Cl)cc2)CCCCC1	13.3%
CCCC1=NN2C(=N)/C(=C\c3ccc(OCCOc4ccc(NC(C)=O)cc4)c(OC)c3)C(=O)N=C2S1	12.4%

From publication PMC4336329 (PLoS ONE, 2015)
